Reference: EP4786492A1
Where “and” joins values, the source holds several entries; their conditions need not be identical. Identical values can stand only once. Values belong to the binder of their own block, whether it stands above or below them.

What was measured:
[1] = biological target: mouse DLL3 on CHO K1-mDLL3 cells (mouse) (UniProt O88516); assay: FACS, CHO-K1-mDLL3 cells, 0.0064 nM antibody
[2] = biological target: DLL3 endogenously expressed on NCI-H82 cells (UniProt Q9NYJ7); assay: FACS on NCI-H82 cells; antibody 0.00128 nM
[3] = biological target: mouse DLL3 on CHO K1-mDLL3 cells (mouse) (UniProt O88516); assay: FACS, CHO-K1-mDLL3 cells, 100 nM antibody
[4] = biological target: monkey DLL3 on CHO-K1-cyno DLL3 cells (cynomolgus monkey); assay: FACS, CHO-K1-cyno DLL3 cells, 0.16 nM antibody
[5] = biological target: DLL3 endogenously expressed on NCI-H82 cells (UniProt Q9NYJ7); assay: FACS on NCI-H82 cells; antibody 0.8 nM
[6] = biological target: monkey DLL3 on CHO-K1-cyno DLL3 cells (cynomolgus monkey); assay: FACS, CHO-K1-cyno DLL3 cells, 0.8 nM antibody
[7] = biological target: monkey DLL3 on CHO-K1-cyno DLL3 cells (cynomolgus monkey); assay: FACS, CHO-K1-cyno DLL3 cells, 0.00128 nM antibody
[8] = biological target: mouse DLL3 on CHO K1-mDLL3 cells (mouse) (UniProt O88516); assay: FACS, CHO-K1-mDLL3 cells, 20 nM antibody
[9] = biological target: DLL3 endogenously expressed on NCI-H82 cells (UniProt Q9NYJ7); assay: FACS on NCI-H82 cells; antibody 0.16 nM
[10] = biological target: mouse DLL3 on CHO K1-mDLL3 cells (mouse) (UniProt O88516); assay: FACS, CHO-K1-mDLL3 cells, 0.8 nM antibody
[11] = biological target: monkey DLL3 on CHO-K1-cyno DLL3 cells (cynomolgus monkey); assay: FACS, CHO-K1-cyno DLL3 cells, 4 nM antibody
[12] = biological target: human DLL4 protein (human) (UniProt Q9NR61); assay: ELISA, maximum over 0.1-100 nM
[13] = biological target: human DLL1 protein (human) (UniProt O00548); assay: ELISA, maximum over 0.1-100 nM
[14] = biological target: mouse DLL3 on CHO K1-mDLL3 cells (mouse) (UniProt O88516); assay: FACS, CHO-K1-mDLL3 cells, 0.16 nM antibody
[15] = biological target: DLL3 endogenously expressed on NCI-H82 cells (UniProt Q9NYJ7); assay: FACS on NCI-H82 cells; antibody 4 nM
[16] = biological target: human DLL3 protein expressed on CHO-K1 recombinant cells (human DLL3 extracellular segment fused to EpCAM transmembrane and intracellular regions) (human) (UniProt Q9NYJ7); assay: FACS, CHO-K1 hDLL3 cells, 0.0064 nM antibody
[17] = biological target: human DLL3 protein expressed on CHO-K1 recombinant cells (human DLL3 extracellular segment fused to EpCAM transmembrane and intracellular regions) (human) (UniProt Q9NYJ7); assay: FACS, CHO-K1 hDLL3 cells, 0.00128 nM antibody
[18] = biological target: mouse DLL3 on CHO K1-mDLL3 cells (mouse) (UniProt O88516); assay: FACS, CHO-K1-mDLL3 cells, 0.032 nM antibody
[19] = biological target: DLL3 endogenously expressed on NCI-H82 cells (UniProt Q9NYJ7); assay: FACS on NCI-H82 cells; antibody 100 nM
[20] = biological target: human DLL3 protein expressed on CHO-K1 recombinant cells (human DLL3 extracellular segment fused to EpCAM transmembrane and intracellular regions) (human) (UniProt Q9NYJ7); assay: FACS, CHO-K1 hDLL3 cells, 0.8 nM antibody
[21] = biological target: human DLL3 protein expressed on CHO-K1 recombinant cells (human DLL3 extracellular segment fused to EpCAM transmembrane and intracellular regions) (human) (UniProt Q9NYJ7); assay: FACS, CHO-K1 hDLL3 cells, 4 nM antibody
[22] = biological target: human DLL1 protein (Acro, Cat. No. DL1-H52H8) (human) (UniProt O00548); assay: ELISA, coated hDLL1; maximum over 0.1, 1, 10, 100 nM antibody
[23] = biological target: mouse DLL3 on CHO K1-mDLL3 cells (mouse) (UniProt O88516); assay: FACS, CHO-K1-mDLL3 cells, 0.00128 nM antibody
[24] = biological target: human DLL3 protein expressed on CHO-K1 recombinant cells (human DLL3 extracellular segment fused to EpCAM transmembrane and intracellular regions) (human) (UniProt Q9NYJ7); assay: FACS, CHO-K1 hDLL3 cells, 20 nM antibody
[25] = biological target: monkey DLL3 on CHO-K1-cyno DLL3 cells (cynomolgus monkey); assay: FACS, CHO-K1-cyno DLL3 cells, 100 nM antibody
[26] = biological target: mouse DLL3 on CHO K1-mDLL3 cells (mouse) (UniProt O88516); assay: FACS, CHO-K1-mDLL3 cells, 4 nM antibody
[27] = biological target: DLL3 endogenously expressed on NCI-H82 cells (UniProt Q9NYJ7); assay: FACS on NCI-H82 cells; antibody 0.0064 nM
[28] = biological target: DLL3 endogenously expressed on NCI-H82 cells (UniProt Q9NYJ7); assay: FACS on NCI-H82 cells; antibody 0.032 nM
[29] = biological target: human DLL4 protein (Acro, Cat. No. DL4-H5227) (human) (UniProt Q9NR61); assay: ELISA, coated hDLL4; maximum over 0.1, 1, 10, 100 nM antibody
[30] = biological target: human DLL3 protein expressed on CHO-K1 recombinant cells (human DLL3 extracellular segment fused to EpCAM transmembrane and intracellular regions) (human) (UniProt Q9NYJ7); assay: FACS, CHO-K1 hDLL3 cells, 100 nM antibody
[31] = biological target: monkey DLL3 on CHO-K1-cyno DLL3 cells (cynomolgus monkey); assay: FACS, CHO-K1-cyno DLL3 cells, 0.0064 nM antibody
[32] = biological target: monkey DLL3 on CHO-K1-cyno DLL3 cells (cynomolgus monkey); assay: FACS, CHO-K1-cyno DLL3 cells, 20 nM antibody
[33] = biological target: monkey DLL3 on CHO-K1-cyno DLL3 cells (cynomolgus monkey); assay: FACS, CHO-K1-cyno DLL3 cells, 0.032 nM antibody
[34] = biological target: DLL3 endogenously expressed on NCI-H82 cells (UniProt Q9NYJ7); assay: FACS on NCI-H82 cells; antibody 20 nM
[35] = biological target: human delta-like ligand 3 (DLL3) on SHP77 cells (human) (UniProt Q9NYJ7); assay: FACS on SHP77 cells
[36] = biological target: human DLL3 on CHO-K1 hDLL3 cells (human) (UniProt Q9NYJ7); assay: FACS, CHO-K1 hDLL3 #5
[37] = biological target: monkey DLL3 on CHO K1-cyno DLL3 cells (cynomolgus monkey); assay: FACS, CHO K1-cyno DLL3 #1
[38] = biological target: human DLL3 protein expressed on CHO-K1 recombinant cells (human DLL3 extracellular segment fused to EpCAM transmembrane and intracellular regions) (human) (UniProt Q9NYJ7); assay: FACS, CHO-K1 hDLL3 cells, 0.032 nM antibody
[39] = biological target: mouse DLL3 on CHO K1-mDLL3 cells (mouse) (UniProt O88516); assay: FACS, CHO K1-mDLL3 #4
[40] = biological target: human DLL3 on CHO-K1 hDLL3 cells (human) (UniProt Q9NYJ7); assay: FACS, CHO-K1 hDLL3 #7
[41] = biological target: mouse DLL3 on CHO K1-mDLL3 cells (mouse) (UniProt O88516); assay: FACS, CHO K1-mDLL3 #6
[42] = biological target: monkey DLL3 on CHO K1-cyno DLL3 cells (cynomolgus monkey); assay: FACS, CHO K1-cyno DLL3 #2
[43] = biological target: human DLL3 on CHO-K1 hDLL3 cells (human) (UniProt Q9NYJ7); assay: FACS, CHO-K1 hDLL3 #11
[44] = biological target: human DLL3 protein expressed on CHO-K1 recombinant cells (human DLL3 extracellular segment fused to EpCAM transmembrane and intracellular regions) (human) (UniProt Q9NYJ7); assay: FACS, CHO-K1 hDLL3 cells, 0.16 nM antibody
[45] = biological target: monkey DLL3 on CHO K1-cyno DLL3 cells (cynomolgus monkey); assay: FACS, CHO K1-cyno DLL3 #3

Sequence of monkey DLL3 on CHO K1-cyno DLL3 cells (cynomolgus monkey) (chain, as listed by the source limits assumed): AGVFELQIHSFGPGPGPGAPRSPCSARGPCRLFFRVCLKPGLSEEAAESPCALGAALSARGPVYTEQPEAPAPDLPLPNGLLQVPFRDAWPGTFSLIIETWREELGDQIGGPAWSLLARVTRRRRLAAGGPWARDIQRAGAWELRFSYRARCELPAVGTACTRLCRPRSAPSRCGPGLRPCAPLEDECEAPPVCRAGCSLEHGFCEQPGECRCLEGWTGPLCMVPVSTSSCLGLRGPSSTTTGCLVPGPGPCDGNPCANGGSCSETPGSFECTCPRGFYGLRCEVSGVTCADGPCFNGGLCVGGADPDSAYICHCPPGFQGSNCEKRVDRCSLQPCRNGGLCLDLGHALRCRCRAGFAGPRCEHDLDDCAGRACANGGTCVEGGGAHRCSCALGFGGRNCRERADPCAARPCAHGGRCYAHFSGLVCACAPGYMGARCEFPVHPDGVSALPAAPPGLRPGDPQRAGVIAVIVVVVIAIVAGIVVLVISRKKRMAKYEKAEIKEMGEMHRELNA
Sequence of monkey DLL3 on CHO-K1-cyno DLL3 cells (cynomolgus monkey) (chain, as listed by the source limits assumed): as above

MFI [1]: 138 MFI
MFI [2]: 120 and 123
MFI [3]: 1890 MFI
MFI [4]: 1560 MFI
MFI [5]: 789 and 883
MFI [6]: 5170 MFI
MFI [7]: 129 MFI
MFI [8]: 1800 MFI
MFI [9]: 621 and 527
MFI [10]: 1170 MFI
MFI [11]: 7310 MFI
Emax of OD450 nm binding value [12]: 0.04 OD450 and 0.05 OD450
Emax of OD450 nm binding value [13]: 0.04 OD450 and 0.05 OD450 and 0.06 OD450
MFI [14]: 532 MFI
MFI [15]: 836 and 942
MFI [16]: 420 MFI and 181 MFI
MFI [17]: 217 MFI and 130 MFI
MFI [18]: 212 MFI
MFI [19]: 1100 and 1230
MFI [20]: 8360 MFI and 4960 MFI
MFI [21]: 8930 MFI and 12400 MFI
Emax of OD450 nm binding value [22]: 0.37 OD450 nm
MFI [23]: 120 MFI
MFI [24]: 8940 MFI and 13100 MFI
MFI [25]: 8660 MFI
MFI [26]: 1580 MFI
MFI [27]: 160 and 139
MFI [28]: 290 and 218
Emax of OD450 nm binding value [29]: 0.6 OD450 nm
MFI [30]: 8790 MFI and 14000 MFI
MFI [31]: 207 MFI
MFI [32]: 8100 MFI
MFI [33]: 469 MFI
MFI [34]: 944 and 1040
MFI at 0.00128 nM [35]: 100 MFI and 121 MFI
MFI at 0.0064 nM [35]: 117 MFI and 160 MFI
MFI at 0.032 nM [35]: 175 MFI and 299 MFI
MFI at 0.16 nM [35]: 390 MFI and 668 MFI
MFI at 0.8 nM [35]: 773 MFI and 1030 MFI
MFI at 4 nM [35]: 911 MFI and 1090 MFI
MFI at 20 nM [35]: 1000 MFI and 1180 MFI
MFI at 100 nM [35]: 1150 MFI and 1360 MFI
B1: AMG757-4 scFv-hFc (Fc fusion)
scFv: QVQLQESGPGLVKPSETLSLTCTVSGGSISSYYWSWIRQPPGKCLEWIGYVYYSGTTNYNPSLKSRVTISVDTSKNQFSLKLSSVTAADTAVYYCASIAVTGFYFDYWGQGTLVTVSSGGGGSGGGGSGGGGSEIVLTQSPGTLSLSPGERVTLSCRASQRVNNNYLAWYQQRPGQAPRLLIYGASSRATGIPDRFSGSGSGTDFTLTISRLEPEDFAVYYCQQYDRSPLTFGCGTKLEIK[human IgG1 Fc with C220S (EU numbers) cut from this listing]

MFI [1]: 100 MFI
MFI [2]: 100
Mean fluorescence intensity of cells [36]: 2000 MFI
MFI [3]: 673 MFI
MFI [4]: 2060 MFI
MFI [5]: 422
MFI [6]: 6090 MFI
MFI [7]: 166 MFI
MFI [8]: 698 MFI
MFI [9]: 286
MFI [10]: 497 MFI
MFI [11]: 8770 MFI
MFI [14]: 263 MFI
Mean fluorescence intensity of cells [37]: 734 MFI
MFI [15]: 472
MFI [16]: 283 MFI
MFI [17]: 159 MFI
MFI [38]: 727 MFI
MFI [18]: 138 MFI
MFI [19]: 588
Mean fluorescence intensity of cells [39]: 249 MFI
MFI [20]: 8510 MFI
MFI [21]: 14100 MFI
Emax of OD450 nm binding value [22]: 0.08 OD450 nm
MFI [23]: 92 MFI
MFI [24]: 15600 MFI
MFI [25]: 10900 MFI
Mean fluorescence intensity of cells [40]: 2380 MFI
Mean fluorescence intensity of cells [41]: 349 MFI
MFI [26]: 672 MFI
MFI [27]: 114
MFI [28]: 165
Emax of OD450 nm binding value [29]: 0.06 OD450 nm
MFI [30]: 16600 MFI
Mean fluorescence intensity of cells [42]: 1560 MFI
MFI [31]: 267 MFI
MFI [32]: 9600 MFI
MFI [33]: 642 MFI
MFI [34]: 500
Mean fluorescence intensity of cells [43]: 1630 MFI
MFI at 0.00128 nM [35]: 153 MFI
MFI at 0.0064 nM [35]: 188 MFI
MFI at 0.032 nM [35]: 286 MFI
MFI at 0.16 nM [35]: 618 MFI
MFI at 0.8 nM [35]: 1230 MFI
MFI at 4 nM [35]: 1490 MFI
MFI at 20 nM [35]: 1620 MFI
MFI at 100 nM [35]: 1890 MFI
MFI [44]: 2510 MFI
Mean fluorescence intensity of cells [45]: 1580 MFI
B2: 2G1 scFv-hFc (Fc fusion)
scFv: QLQLQESGPGLVKPSETLSLTCTVSGGSISSSSYYWGWIRQPPGKGLEWIGSIYYSGNIYHNPSLKSRVSISVDTSKNQFSLRLSSVTAADTAVYYCAREIIVGATHFDYWGQGTLVTVSSGGGGSGGGGSGGGGSGGGGSAIQMTQSPSSLSASVGDRVTITCRASQGIRNDLGWYQQKPGKAPELLIYAASSLQSGVPSRFSGSGSGTDFTLTISSLQPEDFATYYCLQDYNYPLTFGPGTKVDIK[human IgG1 Fc with changes cut from this listing]
